The other results are listed elsewhere or left out. At the low end of the ranking the order means little.

Experimental findings from paper PMC10668032 are described below.

This assay concerns the target SIX1-Q177R homeodomain (UniProt Q15475). Briefly: universal protein binding microarray. The following applies: Universal all-10-mer PBM (8x60K, AMADID 030236), 300 nM GST-tagged protein, Alexa Fluor 488 anti-GST; buffer, salt, pH and temperature not stated; high values mean tight binding; most listed sequences are background and not binding sites; double strand, one strand shown.
For the sequence ATGTGCAC, the binding signal stood at 0.14 E-score. CCGACGTC: the binding signal was -0.203 E-score. In the case of CCCATATC, the binding signal came to 0.0889 E-score. On to AGAGCGAA, for which the binding signal is -0.091 E-score. To ATTTTTAG belongs -0.123 E-score; to ATGAGTAA, -0.0847 E-score. In the case of CGAGAGGA, the binding signal is -0.0149 E-score. On to ATGCGCAA, for which the binding signal was -0.195 E-score. For TGCATGAA, the binding signal is -0.0753 E-score.

As for CCCCCTGC, the binding signal came out at 0.156 E-score. Take AAGACGAG: the binding signal was 0.00507 E-score. In the case of CGCTCTTA, the binding signal is -0.105 E-score.

On to GAACATGC, for which the binding signal is -0.0849 E-score. Regarding CGTTGCTA, the binding signal is -0.157 E-score. In the case of TAACCCCA, the binding signal is 0.217 E-score.

As to CAGCTCAA, the binding signal was -0.351 E-score. TCCCGCAA: the binding signal was 0.00702 E-score. With GTATTCTA the figure was 0.174 E-score; with TAAGGGTA, 0.163 E-score; with ACAATTAG, -0.0821 E-score. As to CCTTGGCC, the binding signal was -0.132 E-score. With GACTGACA, the binding signal worked out at 0.096 E-score. On to CTAATTGC, for which the binding signal is -0.0208 E-score.

Take ATCGAACC: the binding signal stood at 0.0362 E-score. On to TATGGTAA, for which the binding signal amounted to 0.0115 E-score.

In the case of GTGTCGTA, the binding signal worked out at 0.45 E-score. As to CCGAAAGG, the binding signal came out at 0.00382 E-score. For the sequence GAGACGTA, the binding signal is -0.0858 E-score.

As to CTAAGAGC, the binding signal stood at 0.0238 E-score. Turning to AGACGCTG, the binding signal was determined as 0.107 E-score. AGACTGAA: the binding signal was -0.241 E-score.

Consider ATTCACAG, for which the binding signal is -0.218 E-score. For GTCCCGCA, the binding signal is 0.0344 E-score.

As to AACGCAAG, the binding signal is -0.139 E-score. Regarding CGCGGCCC, the binding signal is -0.124 E-score. Consider CGCGTAGC, for which the binding signal stood at 0.0579 E-score. In the case of CCTTGTCA, the binding signal was 0.0528 E-score. Turning to AGTAACCC, the binding signal worked out at 0.201 E-score.

ATGACAGA: the binding signal is -0.199 E-score.

On to ATATTAAA, for which the binding signal came out at 0.085 E-score. For the sequence CAATGGCA, the binding signal is -0.11 E-score.

For ATTTGCGG, the binding signal was -0.222 E-score. As for CCCCCACC, the binding signal stood at 0.133 E-score. To AGTTAAAT belongs -0.196 E-score; to CAAATGGC, -0.169 E-score; to ACTTCTAC, 0.182 E-score. For ATTGTAGC, the binding signal is -0.0606 E-score. In the case of CCTATCGC, the binding signal was -0.108 E-score. For the sequence CACGAAGG, the binding signal was determined as 0.146 E-score. CACAATCG: the binding signal was found to be 0.0233 E-score.

Consider AAGTCTCG, for which the binding signal is -0.14 E-score. In the case of AAACTTAG, the binding signal is -0.128 E-score. With ACCTAGTG, the binding signal worked out at 0.232 E-score.

Take AGGGTCGG: the binding signal turned out to be 0.172 E-score. For the sequence ATATAGTG, the binding signal was determined as 0.265 E-score. For the sequence AGACTAGC, the binding signal is -0.232 E-score.

Consider CCACTCCC, for which the binding signal is -0.007 E-score. Turning to CATTTTAA, the binding signal is -0.141 E-score. CCTGGTCG: the binding signal is 0.125 E-score.

Turning to CACTCACA, the binding signal was 0.228 E-score.

Turning to CAATTGCA, the binding signal is -0.0728 E-score. As for GGAGGGCC, the binding signal is -0.149 E-score. Regarding CATGTGGC, the binding signal was -0.229 E-score. With GTTCCCTA the figure was -0.0631 E-score. Consider GATTCGAC, for which the binding signal was -0.02 E-score. On to AGTGGTGC, for which the binding signal was determined as 0.245 E-score. For CCGCCGCC, the binding signal stood at 0.0455 E-score. In the case of CGGTATCA, the binding signal was found to be 0.312 E-score. As to AGTTTTCG, the binding signal is -0.0943 E-score.

With ACGCACGT, the binding signal came to 0.0456 E-score. To ACAATGTG belongs -0.0929 E-score; to AAGATGAT, -0.121 E-score; to TAGCGGCA, -0.0473 E-score.

With AACGGCGC, the binding signal is -0.226 E-score. On to AACACTGC, for which the binding signal was found to be 0.375 E-score. With GCGGTAAA the figure was -0.108 E-score; with ACACATTC, 0.0929 E-score; with ATCAGCAC, -0.0632 E-score.

As to ACGGTAGC, the binding signal was -0.0864 E-score. Consider GTTTAAAA, for which the binding signal was -0.107 E-score. Consider ACTATGCC, for which the binding signal is 0.0123 E-score. With CGCTCAGC the figure was 0.0793 E-score; with AATAGAAC, -0.0938 E-score. To ATGGGGGC belongs -0.111 E-score; to CTGTCAGC, -0.278 E-score; to ACGAAGCT, -0.135 E-score. To CGCTGTCC belongs -0.239 E-score; to CCTGAGTA, 0.0767 E-score.

With ACTGAAAA, the binding signal is -0.124 E-score. To AGCGTAAA belongs -0.0617 E-score; to GGTTAACA, 0.224 E-score; to AAGGCCTT, -0.39 E-score. With CCCAGGGG the figure was 0.0827 E-score; with CGACTCGC, 0.0879 E-score; with CCGTTGGA, -0.136 E-score. To GATGCTCA belongs -0.37 E-score; to ATAGAGAT, -0.292 E-score. Turning to CCGGCGAC, the binding signal came out at 0.00878 E-score.

Regarding CGGGGGTC, the binding signal was 0.314 E-score. Consider CTTGTTGC, for which the binding signal is -0.197 E-score. As to GAGTCGCC, the binding signal worked out at 0.0779 E-score. For CCAATGCA, the binding signal amounted to 0.0653 E-score. To CGGTTCGC belongs -0.207 E-score; to CATTAGCA, -0.0717 E-score; to ACTTGTTG, -0.209 E-score.

In the case of GATAATAC, the binding signal amounted to 0.157 E-score. Consider GCGTCCCC, for which the binding signal is -0.0511 E-score. Take TGGTTCAA: the binding signal came out at 0.0105 E-score. Take GCAAGAAA: the binding signal was -0.124 E-score.

GATACACC: the binding signal was 0.469 E-score. As for AGAGATGC, the binding signal is -0.0601 E-score. In the case of CCGCTGTC, the binding signal was -0.215 E-score.

In the case of CTCTTTCC, the binding signal was -0.234 E-score. As for ATACCTAC, the binding signal stood at 0.224 E-score. To GAGTTCAC belongs 0.0168 E-score; to CAAACTGC, -0.174 E-score; to CTGCAGCC, -0.0817 E-score. As to CCTCTTTA, the binding signal is 0.171 E-score. With ACAACCCC the figure was 0.207 E-score; with CAATCAGG, -0.14 E-score. Regarding GGGATGAA, the binding signal was -0.0203 E-score.

As for CCGCCGAC, the binding signal is 0.249 E-score.

ATTAATCA: the binding signal is -0.077 E-score.

Take AGAGGAAG: the binding signal is -0.0801 E-score. With CGAAGCCC, the binding signal was -0.106 E-score. For the sequence ACCCAGTG, the binding signal is 0.21 E-score. Take CTATTCGA: the binding signal was -0.189 E-score. Turning to CCTGGCAC, the binding signal was 0.0725 E-score. To ACTGTTGG belongs -0.22 E-score. Consider GCGCGCCA, for which the binding signal was -0.198 E-score.

For the sequence ATAATGGC, the binding signal is -0.00598 E-score. Regarding CGCGGGAG, the binding signal came to 0.132 E-score. To GAGTGGGC belongs -0.19 E-score.

For ATGTCATC, the binding signal is -0.197 E-score. To AGCTTAAC belongs -0.0566 E-score; to ACGCGACG, 0.0991 E-score. Turning to CTGTGTGA, the binding signal is 0.114 E-score. As for ATCATACA, the binding signal was 0.147 E-score. Turning to ATCTAAAC, the binding signal is -0.0978 E-score. As to ATGCATAG, the binding signal was -0.0129 E-score. Consider AGGTCTCG, for which the binding signal was -0.0514 E-score. For CGAGCATC, the binding signal is -0.129 E-score. Consider GTCCATCA, for which the binding signal was -0.000235 E-score. For the sequence CACTCCTC, the binding signal stood at 0.201 E-score.

As for AGGATAGA, the binding signal was -0.0391 E-score. ACCGGGGG: the binding signal came to 0.238 E-score.

Regarding CTGAGTCA, the binding signal amounted to 0.0349 E-score. As for AGCTTCAT, the binding signal is -0.269 E-score. On to CACACGCA, for which the binding signal came to 0.32 E-score. As for CATAGGAA, the binding signal is -0.0697 E-score.

Regarding AGTTATGC, the binding signal was -0.0843 E-score.

With ACGGCTTA, the binding signal is -0.0699 E-score. With ACCCCTCG the figure was 0.307 E-score; with GGGGCCGA, -0.175 E-score; with CTCGTTAA, -0.00649 E-score. Take CAGCGGCG: the binding signal was -0.0815 E-score.

TCTCTTAA: the binding signal was -0.166 E-score.

Turning to TCTAGAAA, the binding signal is -0.0841 E-score. Take ATTCGAGC: the binding signal was -0.149 E-score. In the case of GGTGCTAC, the binding signal was 0.183 E-score. In the case of CCGCAGCA, the binding signal was -0.0902 E-score. As for GATCGGAA, the binding signal was -0.208 E-score. Turning to ATCGAAAC, the binding signal is -0.0983 E-score.

AGACATAC: the binding signal was -0.171 E-score. To CCCCAAAG belongs 0.0256 E-score; to ACCGCATG, -0.119 E-score. On to GTCCCCAA, for which the binding signal is -0.108 E-score. On to AGGTTGAA, for which the binding signal is -0.0927 E-score. Take GGTAGTTA: the binding signal came to 0.0694 E-score. For the sequence GCTGGACA, the binding signal was -0.00889 E-score. Turning to CCGTAATA, the binding signal is -0.0219 E-score. On to CATAGCGG, for which the binding signal is -0.0787 E-score.
